Measurements as given in article PMC4336329 (PLoS ONE, 2015).
The campaign covered roughly 310,000 compounds. About 2,200 (0.71%) showed an effect of 50% or more. Effects have a minus sign here. The list shows a part of the results.

Molecular target: human ether-à-go-go-related gene (hERG) potassium channel (human, UniProt Q12809)
Test: primary screen, population patch clamp on CHO cells stably expressing hERG

Chain of human ether-à-go-go-related gene (hERG) potassium channel (Q12809 whole entry, looked up): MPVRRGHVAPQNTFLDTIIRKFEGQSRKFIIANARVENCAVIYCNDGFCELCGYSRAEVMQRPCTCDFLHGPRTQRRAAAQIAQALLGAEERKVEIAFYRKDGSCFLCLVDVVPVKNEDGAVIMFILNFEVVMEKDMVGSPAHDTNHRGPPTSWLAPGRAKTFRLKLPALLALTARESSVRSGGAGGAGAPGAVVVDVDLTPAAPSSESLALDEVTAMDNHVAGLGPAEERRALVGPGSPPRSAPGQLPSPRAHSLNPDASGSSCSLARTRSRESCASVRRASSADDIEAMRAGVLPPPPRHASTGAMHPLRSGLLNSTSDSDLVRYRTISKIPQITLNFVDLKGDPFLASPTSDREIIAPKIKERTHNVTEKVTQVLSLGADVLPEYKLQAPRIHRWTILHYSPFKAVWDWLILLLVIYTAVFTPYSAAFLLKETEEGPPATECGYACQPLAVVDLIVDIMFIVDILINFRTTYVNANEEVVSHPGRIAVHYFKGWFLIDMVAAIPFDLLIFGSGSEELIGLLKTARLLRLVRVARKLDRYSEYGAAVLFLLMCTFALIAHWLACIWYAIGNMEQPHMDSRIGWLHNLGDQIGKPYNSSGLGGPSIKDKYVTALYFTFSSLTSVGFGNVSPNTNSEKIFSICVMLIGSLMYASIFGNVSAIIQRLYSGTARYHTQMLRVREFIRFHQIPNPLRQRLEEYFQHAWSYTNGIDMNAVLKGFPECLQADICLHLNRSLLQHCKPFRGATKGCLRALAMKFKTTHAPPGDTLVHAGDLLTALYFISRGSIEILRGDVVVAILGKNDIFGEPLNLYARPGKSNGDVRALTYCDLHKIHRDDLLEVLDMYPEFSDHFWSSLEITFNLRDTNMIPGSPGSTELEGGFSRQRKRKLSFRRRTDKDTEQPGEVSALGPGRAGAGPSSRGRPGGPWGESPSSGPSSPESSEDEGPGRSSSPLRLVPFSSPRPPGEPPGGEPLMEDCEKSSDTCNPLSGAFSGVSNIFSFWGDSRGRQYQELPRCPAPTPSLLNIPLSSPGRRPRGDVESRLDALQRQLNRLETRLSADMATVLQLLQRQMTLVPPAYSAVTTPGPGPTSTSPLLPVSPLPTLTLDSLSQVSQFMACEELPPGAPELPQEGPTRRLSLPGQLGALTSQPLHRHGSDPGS

| Compound | hERG current change (%, negative = inhibition) at 1uM |
| --- | --- |
| CN1CCN(S(=O)(=O)c2cccc(C(=O)N(C)CC(=O)Nc3ccc(F)c(F)c3F)c2)CC1 | 14.4% |
| Cc1cccc(NC(=O)C2CC(=O)NC(Nc3nc4ccccc4s3)=N2)c1 (stereo not drawn) | 13.7% |
| CCC(=O)c1ccc(OCC(=O)c2ccc3c(c2)NC(=O)CO3)cc1 | 10.9% |
| O=C(Cn1ncc2c([nH]c3ccccc32)c1=O)N1CCN(c2ccc(F)cc2)CC1 | 35.9% |
| Cc1ccc(-n2ccnc2SCC(=O)c2c(N)n(C3CC3)c(=O)[nH]c2=O)cc1C | 10.2% |
| CN(C)c1nnnn1-c1ccc(Oc2ncc(C(F)(F)F)cc2Cl)cc1 | 7.84% |
| COCc1cc(C)nc(SCc2nc3ccccc3c(=O)[nH]2)c1C#N | 10.1% |
| O=C1C=C(O)C(n2cncn2)C(c2cc(F)ccc2F)C1 (stereo not drawn) | 16.2% |
| CCCCCOc1ccc(NC(=O)CCCC(=O)O)cc1 | 6.65% |
| Cc1ccc(S(=O)(=O)N2CCC(C(=O)Nc3ccc(S(=O)(=O)N4CCCC4)cc3)CC2)cc1 | 3.25% |
| Nc1ccc(C(=O)Nc2ccc3nc(-c4ccncc4)[nH]c3c2)cc1 | 10.7% |
| CCCCC(NC(=O)CCc1c(C)c2cc3c4c(oc3c(C)c2oc1=O)CCCC4)C(=O)O (stereo not drawn) | 9.64% |
| COc1ccc(C(=O)NC2CCCCCC2)cc1S(=O)(=O)Nc1ccc(Br)cc1 | -5.35% |
| CCOC(=O)N1CCc2c(sc(NC(=O)Cc3ccccc3)c2C(=O)c2ccc(OC)cc2)C1 | 13.5% |
| Cc1ccc(S(=O)(=O)NC(=O)NN2CCCCCC2)cc1 | 5.75% |
| Cn1cnc([N+](=O)[O-])c1Sc1ccc([N+](=O)[O-])cc1 | -28.5% |
| CCO/C=C1\C(=O)N(c2ccccc2)C(=O)c2ccccc21 | 11.7% |
| CCOc1cc(C#N)ccc1OCC(=O)N1CCc2ccccc2C1 | -4.72% |
| CCn1c(=O)cc(OCC(=O)N2CCN(Cc3ccc4c(c3)OCO4)CC2)c2ccccc21 | -4.45% |
| CC(C)CN1CCN(Cc2ccc(C#CC(C)(C)O)cc2)CC1CCO (stereo not drawn) | 5.05% |
| Cc1ccc(NC(=O)CS(=O)CC(=O)N(c2ccccc2)C(C)C(=O)NC2CCCC2)cc1 (stereo not drawn) | -1.98% |

| Compound | hERG current change (%, negative = inhibition) at 1uM |
| --- | --- |
| O=S1(=O)NC(=NCC(c2ccco2)N2CCCCC2)c2ccccc21 (stereo not drawn) | 13% |
| Cc1onc(C(=O)Nc2c(C)n(C)n(-c3ccccc3)c2=O)c1[N+](=O)[O-] | 9.61% |
| Cc1ccccc1NC(=S)NCc1ccco1 | 14.1% |
| O=C(CN1C(=O)c2ccc([N+](=O)[O-])cc2C1=O)NC1CCS(=O)(=O)C1 (stereo not drawn) | -2.38% |
| COc1ccc(C2=Nn3c(nnc3-c3cccnc3)SC2)cc1OC | -21.4% |
| CCN(C(=O)c1cccnc1)c1ccccc1 | 5.96% |
| Cc1cc(NS(=O)(=O)c2ccc(NC(=O)COc3ccccc3[N+](=O)[O-])cc2)no1 | 10.8% |
| Cn1c(SCC(=O)Nc2ccc3[nH]c(=O)[nH]c3c2)nnc1-c1ccccc1 | 12.3% |
| C=CCNc1nc(C(=O)OCC(=O)Nc2ccc(S(N)(=O)=O)cc2)cs1 | 4.68% |
| O=c1[nH]c(=S)n(Cc2ccc(F)cc2)c(O)c1C=NCCCn1ccnc1 | 1.12% |
| NC(=O)CCn1c(C(=O)c2cccc([N+](=O)[O-])c2)c2ccccc2[n+]1[O-] | 6.45% |
| COc1ccc(-c2noc(CN3CCCC(OCc4ccccn4)C3)n2)cc1 (stereo not drawn) | 12% |
| O=C(NCc1ccco1)C1CCC(N2C(=O)C3C4CCC(C4)C3C2=O)CC1 (stereo not drawn) | 12.2% |
| CC(=O)c1ccc(OCC(O)CN(C)CCOc2ccc(Br)cc2)cc1 (stereo not drawn) | 14.9% |
| CCOC(=O)N1CCN(C(=O)Nc2ccc(NC(=O)N3CCN(C(=O)OCC)CC3)cc2)CC1 | 16.1% |
| COC(=O)[C@H](C)NC(=O)/C=C/c1ccc(OC)cc1 | 5.46% |
| CC(SCc1nc2sc3c(c2c(=O)[nH]1)CCCC3)C(=O)Nc1ccccn1 (stereo not drawn) | 3.12% |
| COc1ccccc1/C=C\C=N\n1c(-c2ccc(Cl)cc2)n[nH]c1=S | 1.77% |
| Cc1cc(N2C(=O)C(O)=C(C(=O)c3ccco3)C2c2ccccc2F)no1 (stereo not drawn) | 9.84% |
| CCOC(=O)c1ccc(NC(=O)c2ccc(OC(C)C)c(OC)c2)cc1 | 6.23% |
| Cc1ccc(N/C=C(\C2OC(=O)c3ccccc32)[N+](=O)[O-])c(C)c1 (stereo not drawn) | 11.7% |

| Compound | hERG current change (%, negative = inhibition) at 1uM |
| --- | --- |
| Oc1ccc(-c2cn3ccccc3n2)cc1O | 8.99% |
| Cc1ncoc1C(=O)Nc1ccccc1-c1ccccc1 | -5.73% |
| CCOc1ccc(CN2C(=O)c3ccccc3C2C(=O)NCC2CCCO2)cc1 (stereo not drawn) | 12.8% |
| O=C(Cn1c(=O)sc2ccccc21)Nc1ccc(S(=O)(=O)N2CCCCC2)cc1 | 1.06% |
| CC1(C)C(/C=C/C=C/C=C/C=C2\N(CCCCS(=O)(=O)[O-])c3ccc4ccccc4c3C2(C)C)=[N+](CCCCS(=O)(=O)[O-])c2ccc3ccccc3c21.[Na+] | 8.12% |
| C=CCn1c(Cc2cccs2)nnc1SCC(=O)Nc1ccc(OC)c(OC)c1 | 13% |
| CCOC(=O)N1CCN(C(=O)c2ccc3c(=O)n(-c4ccccc4F)c(=S)[nH]c3c2)CC1 | 10.2% |
| Cc1onc(-c2ccccc2)c1C(=O)NNC(=S)NC(=O)c1ccc(F)cc1 | 22.4% |
| Cc1ccc(NC(=O)COC(=O)c2ccc3c(c2)OCO3)cc1S(=O)(=O)N1CCCCC1 | 1.98% |
| CC1CCN(C(=O)CSc2nnc(-c3cccnc3)n2C2CCCCC2)CC1 | -7.03% |
| O=C(NCC1CCCN1S(=O)(=O)c1cccs1)C(=O)Nc1ccccc1Cl (stereo not drawn) | 11.8% |
| CCOc1cccc(C(=O)N(Cc2cccc(F)c2)C2CCS(=O)(=O)C2)c1 (stereo not drawn) | 11.6% |
| CCCSc1cc(NCCOC(=O)CCC)c([N+](=O)[O-])c2nonc12 | 12% |
| CCOC(=O)c1nc(NCc2ccccc2)c2ccccc2n1 | 4.53% |
| O=C1NC2(CCCCCC2)C(=O)N1CCS(=O)(=O)Oc1ccccc1 | 7.3% |
| COC(=O)c1ccc(Oc2nc(N(C)C)nc(N3CCOCC3)n2)cc1 | 6.94% |
| CCC(C(=O)NC1CC1)n1nc(C)c2c(C)n(-c3ccccc3)nc2c1=O (stereo not drawn) | 8.6% |
| COC(=O)/C=C/c1cnc[nH]1 | 21.3% |
| N=C1/C(=C\c2ccc(-c3cccc(Cl)c3)o2)C(=O)N=C2SC=C(c3ccccc3)N12 | 7.18% |
| O=C1CC(N2CCCN(C3CC(=O)N(c4ccc(F)cc4)C3=O)CC2)C(=O)N1c1ccc(F)cc1 (stereo not drawn) | -3.92% |
| Cc1nn(-c2ccccc2)c(C)c1/C=C/C(=O)OC(C)C(=O)Nc1ncc(Cl)cc1Cl (stereo not drawn) | 3.27% |

| Compound | hERG current change (%, negative = inhibition) at 1uM |
| --- | --- |
| CCc1ccccc1NC(=S)NC1CC2CCCC(C1)N2Cc1cccs1 (stereo not drawn) | 0.843% |
| COc1ccc(/C=C2\SC(=O)N(CCC(=O)NCCCn3ccnc3)C2=O)cc1 | -2.52% |
| Cc1cc(Cl)ccc1OCCCC(=O)NC1CCN(C)CC1 | -18.3% |
| CCOC(=O)c1c(-c2ccc(OC)c(OC)c2)csc1NC(=O)C1CCCO1 (stereo not drawn) | 6.95% |
| CC(=O)c1cc2c(cc1NC(=O)CCc1ccccc1)OCO2 | 9.5% |
| COc1ccc(S(=O)(=O)c2snnc2C)cc1 | 11.5% |
| O=C(NCC(O)c1ccc([N+](=O)[O-])cc1)c1cccc(S(=O)(=O)N2CCOCC2)c1 (stereo not drawn) | 8.58% |
| CC(NC(=O)/C(C#N)=C/c1ccco1)c1ccccc1 (stereo not drawn) | 0.764% |
| O=C(CCN1C(=O)c2ccccc2S1(=O)=O)N1CCN(c2cccc(Cl)c2)CC1 | 5.09% |
| C(#Cc1ccccc1)C[N+]1(CC#Cc2cccc3ccccc23)CCCC1.[Br-] | 4.73% |
| COc1cc(/C=C/C(=O)Nc2ccc3[nH]c(=O)[nH]c3c2)cc(OC)c1OC | 4.59% |
| COc1ccc(S(=O)(=O)N2CCC(C(=O)NC(c3nc4ccccc4[nH]3)C(C)C)CC2)cc1 (stereo not drawn) | 14.3% |
| Cc1c(O)ccc2c(CC(=O)N[C@@H](Cc3c[nH]c4ccccc34)C(=O)O)cc(=O)oc12 | 14.1% |
| C/C(CC1(O)C(=O)N(C)c2ccccc21)=N\O (stereo not drawn) | 18.7% |
| CC(C)c1cc(C(=O)N/N=C/c2cccnc2)cs1 | -6.85% |
| CC(C)(C)C(=O)NC(=S)Nc1ccccc1C(N)=O | 3.85% |
| CC1(C)C2CC=C(/C=N/NC(=S)Nc3cccnc3)C1C2 (stereo not drawn) | 12.6% |
| O=C(Nc1cc([N+](=O)[O-])ccc1Cl)C(Sc1ccccc1)c1ccccc1 (stereo not drawn) | 1.16% |
| COc1ccc(CNC(=O)CCCn2ccc3cc(S(=O)(=O)N4CCCC4)ccc32)cc1 | 0.708% |
| O=S1(=O)N=C2CCCN2C(c2ccc(F)cc2)N1 (stereo not drawn) | 1.14% |
| CC(CCc1ccccc1)NC(=O)COC(=O)c1cccc2ccccc12 (stereo not drawn) | 2.34% |
